In all, about 340,000 compounds went through this assay and about 12,000 (3.5%) were called active. Inconclusive means that the source gave no clear call. Such entries were picked first, then a sample of the others. Calls come from the whole dose curve; as a rule, active = well fitted inhibition curve with a large enough effect; inconclusive = small, poorly fitted or top-dose-only effect, or another doubt; inactive = no such curve, though single readings can be large or run the other way. Potencies of inconclusive entries are left out as doubtful fits.
Assay: qHTS Assay for Inhibitors of Hepatitis C Virus (HCV)
Conditions: Huh7.5.1 HCVcc-Cre (HCVcc is cell-culture hepatitis C virus) infection, luciferase reporter, 44 h; activity change, negative = inhibition: at 41.8 µM (top of the series) unless noted
Method in brief: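 Whole-lifecycle infectious HCVcc-Cre system; cells 1,000/well, compound then virus (~0.5 moi) added 4 h after plating, 44 h culture. Luciferase read 15 sec following 15 min substrate incubation, room temp.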
% is set by controls: 0 for no effect and ±100 for the full control effect; potency is the fitted concentration of half-maximal effect; tags give direction and shape of the fitted curve.

Structure (SMILES)	Potency	activity change, negative = inhibition
Cc1ccc(C)c2[nH]c(=O)c(CN(CC3CCCO3)C(=S)NCc3ccco3)cc12 (stereo unspecified)	inconclusive [inhibitor, full curve, poor fit]	
O=C1c2cccnc2-c2ncccc21		inactive: 15.4%
S=C1c2ccccc2CN1c1ccccc1		inactive: 8.79%
CC1CCCCN1S(=O)(=O)c1cccc2nonc12 (stereo unspecified)		inactive: 5.01%
COC1(OC)C(/C=C/c2ccc(Cl)cc2)C(C#N)(C#N)C1(OC)OC (stereo unspecified)	inconclusive [inhibitor, partial curve]	
Cc1cccc(-n2c(SCc3cc(=O)n4ccsc4n3)nc3ccccc32)c1	active: 7.94 µM	
CC(=O)OC(C)(C)/C=C/C(=O)C(C)(O)C1C(O)CC2(C)C3CC=C4C(CC(O)C(=O)C4(C)C)C3(C)C(=O)CC12C (stereo unspecified)	inconclusive [inhibitor, partial curve]	
S=C(NCc1ccc2[nH]c3c(c2c1)CCCC3)Nc1ccccc1	inconclusive [inhibitor, single point]	
O=C(CN1C(=O)C(c2ccccc2)Oc2cccnc21)NCc1ccccc1F (stereo unspecified)	inconclusive [inhibitor, single point]	
Cc1ccc(C)c(S(=O)(=O)N2CCN(c3ncnc4sccc34)CC2)c1	inconclusive [inhibitor, partial curve]	
Cc1cccc(N2CCN(C(=O)c3cccc(N4CCCC4=O)c3)CC2)c1C	inconclusive [inhibitor, single point]	
Cc1ccc(-c2nnc(N3CCCCC3)c3ccccc23)cc1S(=O)(=O)NCC1CCCO1 (stereo unspecified)	inconclusive [inhibitor, single point]	
CC(=O)Nc1ccc(S(=O)(=O)Nc2nc(C)nc3sc(C)c(C)c23)cc1		inactive: 10.2%
C/C(=N\NC(=O)c1ccc(-n2cnnn2)cc1)c1ccc(C)cc1	inconclusive [inhibitor, single point]	
COc1ccc(CCNC(=O)CSc2nc3cc(Cl)ccc3o2)cc1OC	inconclusive [inhibitor, partial curve]	
CN(CCO)c1cc(Sc2nc3ccccc3s2)c2nonc2c1[N+](=O)[O-]	active: 11.2 µM	
O=C(Nc1cccc(NC(=O)c2ccco2)c1)c1ccc2c(c1)OCCO2		inactive: -20%
O=C(CN1C(=O)/C(=C\c2cccc(Cl)c2)Sc2ccccc21)NCCCN1CCOCC1	inconclusive [inhibitor, single point]	
CC[C@H](C)[C@H]1CNC(=S)N1CC1CCN(CCC23CC4CC(CC(C4)C2)C3)CC1	inconclusive [inhibitor, partial curve]	
CCc1c(C)nc2c(-c3ccccc3)c(C)[nH]n2c1=O		inactive: -5.59%
Cc1ccc(C23CC4CC(CC(C(=O)NC(C)C)(C4)C2)C3)cc1		inactive: -19%
Cc1ccc(NC(=S)Nc2cccnc2)c(S(=O)(=O)N2CCCCC2)c1	active: 11.2 µM	
c1ccc(Cc2nnc(Sc3ccccc3)c3ccccc23)cc1	inconclusive [inhibitor, full curve, poor fit]	
O=C(NCC1CCN(Cc2ccc(F)cc2)CC1)C1CCCN(c2ncnc3c2nc2n3CCCCC2)C1 (stereo unspecified)	inconclusive [inhibitor, single point]	

Structure (SMILES)	Potency	activity change, negative = inhibition
O=C(c1ccc(C(=O)N2CCCc3ccccc32)nc1)N1CCCc2ccccc21		inactive: 3.94%
O=C1c2cccc3c([N+](=O)[O-])ccc(c23)C(=O)N1Cc1cccnc1	inconclusive [inhibitor, single point]	
CCOCC(=O)Nc1cc([N+](=O)[O-])ccc1OC	inconclusive [inhibitor, partial curve]	
CC(=O)N(Cc1ccc(F)cc1)C1=C(NCc2ccccc2)C(=O)c2ccccc2C1=O	active: 5.01 µM	
O=C(O)CC1NC(=O)N(c2ccccc2)C1=O (stereo unspecified)	inconclusive [inhibitor, single point]	
O=C(c1ccccc1)N1CCN(CCc2ccccc2)CC1		inactive: 4.2%
CCCCN(C)C(=O)C1CCN(Cc2cccc(OCc3ccccc3)c2)CC1	inconclusive [inhibitor, partial curve]	
O=C(CSc1nc2ccccc2c(=O)n1CC1CCCCC1)N1CCOCC1	inconclusive [inhibitor, single point]	
Cn1ccnc1Sc1ccc(/C=N/NC(=O)c2ccccc2[N+](=O)[O-])cc1[N+](=O)[O-]	inconclusive [inhibitor, full curve, poor fit]	
O=C(NNc1nc2ccccc2o1)c1ccccc1		inactive: -1.52%
CCOC(=O)C1(CC2CCCCO2)CCN(Cc2ccccc2-c2ccco2)CC1 (stereo unspecified)	inconclusive [inhibitor, single point]	
CC(C)CCOC(=O)/C(=C/c1ccco1)NC(=O)/C=C/c1ccccc1		inactive: 11.8%
O=S(=O)(NCc1ccccc1)c1cccs1	inconclusive [inhibitor, full curve]	
CCC1CN(C(=O)NCc2ccc(C)cc2)c2cc(C)ccc2O1 (stereo unspecified)		inactive: -22.6%
COC(=O)c1sc2ccccc2c1-n1cccc1C(=O)C(=O)Nc1ccc(C)cc1	inconclusive [inhibitor, partial curve]	
Nc1ccc(C#Cc2ccc3sc4ccccc4c(=O)c3c2)cc1	inconclusive [inhibitor, partial curve]	
Cc1ccc(NC(=O)c2oc3ccccc3c2NC(=O)C2CCCO2)cc1C (stereo unspecified)	inconclusive [inhibitor, partial curve]	
CCOc1ccccc1NC(=O)c1cccnc1	inconclusive [inhibitor, single point]	
Cc1cc(NC(=O)CCC(=O)N(Cc2ccco2)C2(C(=O)NC3CCCC3)CCC(C)CC2)no1 (stereo unspecified)	active: 14.1 µM	
Clc1cccc(Cl)c1C[n+]1cccc2ccccc21	inconclusive [inhibitor, full curve]	
Cc1sc2nc[nH]c(=S)c2c1-c1ccccc1	inconclusive [inhibitor, full curve]	
CC(=O)Oc1ccc2ccc3ccc(C(C)=O)cc3c2c1	active: 12.6 µM	
COc1ccccc1NC(=S)NNC(=S)Nc1ccc(OC(F)F)cc1	inconclusive [inhibitor, single point]	
COc1ccc(OC)c(NC(=O)c2nnn(Cc3ccccc3C)c2N)c1	active: 7.08 µM	

Structure (SMILES)	Potency	activity change, negative = inhibition
O=C(C1CC1)N1CCc2cc(Br)cc(S(=O)(=O)NCc3ccccn3)c21	inconclusive [inhibitor, single point]	
COc1cc(SC)ccc1C(=O)N1CCCCCC1		inactive: -22.3%
Cn1c(SC/C=C/c2ccccc2)nnc1-c1cnccn1		inactive: 9.58%
COc1ccc(CNC(=O)CCc2nc3cc(S(=O)(=O)N(C)C)ccc3n2C)cc1OC	inconclusive [inhibitor, single point]	
CCN1CCN(c2nc(Nc3cc(OC)ccc3OC)nc(Nc3cc(OC)ccc3OC)n2)CC1		inactive: -80%
O=C(CSc1nnnn1C1CCCCC1)Nc1cccc(NC(=O)c2ccco2)c1	inconclusive [inhibitor, partial curve]	
CC(=O)Nc1ccc(NC(=O)C(C)Oc2ccc(Cl)cc2Cl)cc1 (stereo unspecified)	inconclusive [inhibitor, single point]	
O=C(CCNC(=O)c1ccc(Br)cc1)NC1CCCCCC1		inactive: -4.08%
CCOc1ccc(NC(=S)N=Nc2c(O)[nH]c3ccccc23)cc1	active: 12.6 µM	
C[C@@H]1CCCCCCCCC(=O)OCCN1C(=O)OC(C)(C)C		inactive: 14.9%
Cc1cc(C)c(CN2CCN(C(=O)Cn3cnc4c(NCc5ccccc5)ncnc43)CC2)c(C)c1	inconclusive [inhibitor, full curve]	
CCN(Cc1ccncc1)C(=O)C1CCN(S(=O)(=O)c2cccs2)CC1		inactive: 7.5%
Cc1cc(C)cc(N2CC(C(=O)OCC(=O)Nc3cc(C)on3)CC2=O)c1 (stereo unspecified)		inactive: 7.46%
COc1ccccc1NS(=O)(=O)c1cccc(C(=O)N/N=C/c2c(C)nn(-c3ccccc3)c2N2CCCC2)c1	inconclusive [inhibitor, full curve, poor fit]	
CCC(C)N(C(=O)c1csnn1)C(C(=O)NC(C)(C)C)c1ccccc1 (stereo unspecified)		inactive: 7%
Cc1cc(C)c(S(=O)(=O)NCc2ccncc2)c(C)c1	inconclusive [inhibitor, full curve, poor fit]	
S=C(NCCCN1CCOCC1)N1CCN(c2nc(-c3ccccc3)cs2)CC1	inconclusive [inhibitor, partial curve]	
Cn1c(=O)c2c(SCC(=O)N3CCOCC3)nc(-c3ccccc3Cl)nc2n(C)c1=O	inconclusive [inhibitor, partial curve, poor fit]	
CC(=O)c1cccc(NC(=O)C(C)OC(=O)CCCN=C2NS(=O)(=O)c3ccccc32)c1 (stereo unspecified)		inactive: -25.2%
COc1ccc(C)cc1NC(=O)C(OC(=O)c1cc(C)oc1C)c1ccccc1 (stereo unspecified)	inconclusive [inhibitor, single point]	
CCCc1c(C(=O)Nc2ccc(F)cc2)cnn1-c1ccccc1	inconclusive [inhibitor, full curve, poor fit]	
COc1ccc2nc(NC(=O)C3CCCN(S(=O)(=O)c4c(C)noc4C)C3)sc2c1 (stereo unspecified)	inconclusive [inhibitor, partial curve]	
Cc1nn(Cc2ccc(Cl)cc2)c(C)c1NC(=O)c1c(-c2ccccc2)noc1C	inconclusive [inhibitor, partial curve]	

— PubChem BioAssay AID651820 (National Center for Advancing Translational Sciences (NCATS), 2012)
